Experimental data as given in PubChem BioAssay AID624417 (National Center for Advancing Translational Sciences (NCATS), 2012).
About 6,400 (1.6%) of roughly 410,000 compounds were called active. The shares of active, inactive and inconclusive entries below differ from those in the screen. Calls follow the shape of the dose curve; as a rule, active = well fitted inhibition curve with a large enough effect; inconclusive = small, poorly fitted or top-dose-only effect; inactive = no such curve, though single readings can be large or run the other way. Potencies beside an inconclusive call are fits to weak or partial responses and may not hold up.

Each compound was assayed against Glucagon-like peptide 1 receptor (Homo sapiens) (UniProt P43220) (assay: qHTS of GLP-1 Receptor Inverse Agonists (Inhibition Mode)). Details: HEK293 GLP-1R CRE-luciferase, luminescence, 24 h; Potency: GLP-1R form is constitutively active unless noted; activity change, negative = inhibition: at 38.3 µM (top of the series) unless noted.
Method in brief: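 Stable HEK293 clone (constitutively active GLP-1R + cAMP-response luciferase); 200 cells/uL plated, 12 h pre-culture, compound 24 hr, 37 deg C/5% CO2; detection reagent 12 min RT; luminescence.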
% is scaled to controls: 0 for no effect and ±100 for the full control effect; potency is read from the fitted curve at half-maximal effect; tags tell the direction and shape of the fitted curve.
Also: nearly all actives have a fitted effect of over 55% in size.

UniProt P43220, sequence (P43220 whole entry, looked up): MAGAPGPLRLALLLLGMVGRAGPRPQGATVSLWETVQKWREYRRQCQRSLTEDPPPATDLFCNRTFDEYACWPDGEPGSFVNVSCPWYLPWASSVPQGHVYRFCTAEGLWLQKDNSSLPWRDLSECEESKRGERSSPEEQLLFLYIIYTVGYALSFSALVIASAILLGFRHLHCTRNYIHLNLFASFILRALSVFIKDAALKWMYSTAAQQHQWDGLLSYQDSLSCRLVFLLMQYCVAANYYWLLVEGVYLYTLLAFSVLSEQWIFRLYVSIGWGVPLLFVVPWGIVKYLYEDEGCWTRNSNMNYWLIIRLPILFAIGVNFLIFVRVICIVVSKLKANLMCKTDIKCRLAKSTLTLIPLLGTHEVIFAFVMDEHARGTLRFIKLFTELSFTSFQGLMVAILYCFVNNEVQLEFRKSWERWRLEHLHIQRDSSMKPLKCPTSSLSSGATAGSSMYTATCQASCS

SMILES | Potency | activity change, negative = inhibition
CCCCOc1ccc(C(C)=O)cc1Cc1c(O)[nH]c(=S)[nH]c1=O | inactive | 
O=c1[nH]c(O)c(N=Nc2ccc(Cl)c(S(=O)(=O)Nc3ccccc3Cl)c2)c(=O)[nH]1 | inconclusive: 28.2 µM [inhibitor, single point] | 
C=CCn1c(O)c(C(C)=Nc2ccc(C(=O)OCC)cc2)c(=O)[nH]c1=O | inconclusive: 15.8 µM [inhibitor, single point] | 
O=C(Nc1ccc(Cl)cc1)Nc1ccc(Cl)c(Cl)c1 | inconclusive: 10 µM [inhibitor, partial curve, poor fit] | 
O=C(Cc1ccccc1)N1CCN(C/C=C/c2ccccc2)CC1 | inconclusive: 31.6 µM [inhibitor, partial curve, poor fit] | 
CCN1CCN(c2ncnc3ccc(Br)cc23)CC1 | inconclusive: 10 µM [inhibitor, partial curve, poor fit] | 
COC(=O)C1=C(c2cccc(C#N)c2)C[C@@H]2CC[C@H]1N2C(=O)NCc1cccc2ccccc12 | inconclusive: 28.2 µM [inhibitor, single point] | 
CCOC(=O)c1cccc(C2=C(CNC(=O)c3ccc([N+](=O)[O-])cc3)[C@H]3CC[C@@H](C2)N3Cc2ccccc2)c1 | inconclusive: 8.91 µM [inhibitor, partial curve, poor fit] | 
CC(=O)c1cccc(OCC(=O)N2CCN(CC(=O)Nc3cccc(F)c3)CC2)c1 | inactive | 
CCOc1ccc(C2(C#N)CC[N+](C)(C)CC2)cc1 | inactive | 
CCSc1nnc(NC(=O)c2cccn(Cc3ccccc3Cl)c2=O)s1 | inactive | 
CCOC(=O)c1c(C)n(Cc2ccco2)c2ccc(OC)cc12 | inconclusive: 10 µM [inhibitor, single point] | 
O=C(C1CCCCC1)N1Cc2ccccc2-n2nncc2C1 | inactive | 
COC(=O)C1=C(C)n2nnnc2NC1c1ccc(Cl)cc1 (stereo not given) | inconclusive: 31.6 µM [inhibitor, partial curve, poor fit] | 
Cc1c2ccncc2c(C)c2c1[nH]c1ccccc12 | inactive | 
CC[C@@]1(O)C(=O)OCc2c1cc1n(c2=O)Cc2cc3c(NC(=O)CN)cccc3nc2-1 |  | inconclusive: -41.5% [inhibitor] [at 38.3 µM, GLP-1R form is constitutively active]
N#Cc1cc2c(nc1SCC(=O)Nc1cccc(C(F)(F)F)c1)C1CCN2CC1 | inconclusive: 25.1 µM [inhibitor, partial curve, poor fit] | 
COc1ccc(Br)cc1CNCCc1ccc2c(c1)OCO2 | inconclusive: 28.2 µM [inhibitor, single point] | 
O=C(CN1CC(c2ccccc2)CC1=O)Nc1ccc(F)cc1 (stereo not given) | inactive | 
COc1ccc(S(=O)(=O)NC(CC(=O)N2CCc3ccccc32)c2ccco2)cc1 (stereo not given) | inconclusive: 15.8 µM [inhibitor, partial curve, poor fit] | 

SMILES | Potency | activity change, negative = inhibition
COC(=O)C1=C(c2ccc(OCc3ccccc3)cc2)C[C@@H]2CC[C@H]1N2C(=O)NCCN1CCOCC1 | inactive | 
O=C1/C(=C/c2ccccc2Cl)N2CCC1CC2 | inconclusive: 28.2 µM [inhibitor, single point] | 
Clc1ccc(CCC(Cn2ccnc2)Sc2c(Cl)cccc2Cl)cc1 (stereo not given) | inconclusive: 28.2 µM [inhibitor, single point] | 
COc1ccc([C@H]2CC(=O)C=C(c3ccc4c5c(cccc35)CC4)C2)cc1 | inconclusive: 11.2 µM [inhibitor, partial curve, poor fit] | 
Cc1ccc(Nc2nnc(-c3ccc(C)c(S(=O)(=O)NCc4nc5ccccc5[nH]4)c3)c3ccccc23)cc1 | inconclusive: 28.2 µM [inhibitor, single point] | 
CCCc1nc2ccccc2c(=O)n1-c1ccc(O)cc1 | inconclusive: 10 µM [inhibitor, partial curve, poor fit] | 
COc1ccc(OCC(=O)N2CCN(C/C=C/c3ccccc3)CC2)cc1 | inconclusive: 11.2 µM [inhibitor, single point] | 
COc1ccc2nc(-c3ccc(CN4CCC(n5c(=O)[nH]c6ccccc65)CC4)cc3)c(-c3ccccc3)nc2c1 | inconclusive: 10 µM [inhibitor, partial curve] | 
CC(C)(C#CC(=O)O)OOC(c1ccccc1)(c1ccccc1)c1ccccc1 | active: 11.2 µM [setting not given] | 
COC(=O)C1=C(C(=O)OC)C2OC1c1cc3ccccc3cc12 | inactive | 
Nc1c2c(nc3sc4c(c13)CCCCC4)CCCC2 | inconclusive: 14.1 µM [inhibitor, single point] | 
O=C(Nc1ccccc1)NC1CC2CCC(C1)N2 (stereo not given) | inactive | 
C#CC(CC)(CC)NC(=O)Nc1ccc(OCC)cc1 | inconclusive: 7.08 µM [inhibitor, partial curve, poor fit] | 
O=C1C2CCN(CC2)C1Cc1ccc(OCCOc2ccccc2)cc1 (stereo not given) | inconclusive: 8.91 µM [inhibitor, partial curve, poor fit] | 
O=C1/C(=C/c2ccc3c(c2)OCO3)SC(=S)N1CCC(=O)N(CCO)c1ccccc1 | inconclusive: 10 µM [inhibitor, partial curve, poor fit] | 
Oc1c(Cl)cc(Cl)cc1CN1CCN(Cc2ccccc2)CC1 | inconclusive: 7.08 µM [inhibitor, partial curve, poor fit] | 
CCc1ccccc1N1C(=O)N(Cc2ccccc2C)c2ccccc2S1(=O)=O | inconclusive: 12.6 µM [inhibitor, partial curve, poor fit] | 
CCC(=O)Oc1ccc(C(=O)Nc2cccc(C(=O)c3ccccc3)c2)cc1 | inconclusive: 22.4 µM [inhibitor, single point] | 
COC(=O)C1=C(c2ccc(C(C)=O)cc2)C[C@@H]2CC[C@H]1N2C(=O)N1CCC(O)(c2ccc(Cl)cc2)CC1 | inconclusive: 28.2 µM [inhibitor, single point] | 
CNCC[C@H](Oc1ccc(C(F)(F)F)cc1)c1ccccc1 | inconclusive: 8.91 µM [inhibitor, partial curve] | 
